± gives the standard deviation of the averaged measurements. Some of the results follow.

The record followed here is the supplement of paper PMC11417369.

This assay concerns PfAP2-LT AP2 domain (GST-tagged). Briefly: gcPBM binding intensity (ln(normalized median fluorescence intensity)); higher = stronger DNA binding. In short, it runs like this:
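DNA-binding domains from P. falciparum, fused to GST and produced in E. coli, were put on an Agilent 4 × 180k double-stranded probe array for 1 h in 1× PBS holding 1% milk, 0.2 mg/ml BSA, 0.5% salmon testes DNA and 0.03% Triton X-100. Probes were primer-extended, 36 bp long and drawn from intergenic genomic regions, with negative controls included. After Alexa488 anti-GST antibody detection and a 488 nm scan, binding intensity was set as the highest Masliner-normalised natural-log median intensity across replicate spots of either probe orientation.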
For the sequence “TATACGTAATAATATGCACACAAATAAACTTTATAA [CACACA_site9166]”, the “gcPBM binding intensity (ln)” value is 9.02 ± 0.38. To “ATTTATATATATCATACACACTAATATGTATATTAT [CACACA_site5816]” belongs 8.97 ± 0.34; to “ACTAGTAAATTTATATGTACATATATATATATATAG [XGTACX_site2502]”, 8.97 ± 0.4; to “AAAAAAAATACATACATACACACATATATATATATA [CACACA_site912]”, 9.685 ± 0.05. With “TCTTGGTATATTCAATATATGATTTATATAATTCAA [CACACA_negctrl_site818]” the figure was 8.55 ± 0.34; with “AATAATTTGAAGGTGATAGTATTACATGGGAAATCA [CACACA_negctrl_site301]”, 8.7 ± 0.45; with “ACTCTCTTATATTAAACACACATATATATATGTATA [CACACA_site2703]”, 8.99 ± 0.42. To “TCAAACAAAAAAGAAACACACACTAATTAAATTTTC [CACACA_site1101]” belongs 9.04 ± 0.34; to “ATCTTTCGAACATGTACACACAGAAAAAAAAAAAAA [CACACA_site5393]”, 8.93 ± 0.46; to “GTGTAGGCAAAAAGTTGTACGCCTAAAATCTATATA [XGTACX_site8912]”, 8.87 ± 0.46. With “TAAAAAGTATATGGTCGTACACTTTTGATTAATACA [XGTACX_site7804]”, the “gcPBM binding intensity (ln)” value came out at 8.6 ± 0.38. “TGTATAGGTACAATAATTATAGAGTAATTGACATTA [GTGCAC_negctrl_site183]”: the “gcPBM binding intensity (ln)” value was determined as 8.65 ± 0.47. To “GTACATATAAATATTACACACATTTTCATTTTTAAC [CACACA_site1986]” belongs 9.04 ± 0.42; to “AAATCGAACAAATTATGTACTAAAAAAAAAATTTAT [XGTACX_site6399]”, 8.6 ± 0.51; to “TAGATAAAATTAAAATGTACAAACCTTTTCCCTTAT [XGTACX_site1136]”, 8.55 ± 0.4. As to “ATATATATATATATATGTACTTATTTATTTTATATA [XGTACX_site8810]”, the “gcPBM binding intensity (ln)” value was 9.45 ± 0.18. For the sequence “TATATATATATAAAGGTGCATATCTTTACGTATGTC [GTGCAC_site9665]”, the “gcPBM binding intensity (ln)” value came to 9.26 ± 0.28. In the case of “ATATATATATATGATACATGCATATATTTTTTCTTC [TGCATGCA_site216]”, the “gcPBM binding intensity (ln)” value amounted to 9.24 ± 0.23. To “ATTTTATTTTTTAATAGTACTCATTTTTTATGTGAA [XGTACX_site5494]” belongs 8.56 ± 0.44. To “TTTTTTTTATCAAATTGTACATATACAAAGGTGATC [XGTACX_site8054]” belongs 8.51 ± 0.43; to “AGAAATCATCTGAATTGTACTAACAATTTTTTTTAA [XGTACX_site6191]”, 8.34 ± 0.49; to “CCCAATAATTAAACAACACACATATATATCTGTAAT [CACACA_site5667]”, 9.39 ± 0.38. To AGGGGCGAAACAAAGGTGCTTTTATAAAATATGTAA belongs 8.69 ± 0.45; to “ATAAAATGGGCAAACACACACAAAAAAAAGATATAT [CACACA_site1648]”, 9.53 ± 0.51; to “AACTTAAAAAAAAAAAAAAAAAAAAAAAAAAAAAAA [GTGCAC_negctrl_site34]”, 8.08 ± 0.31. Take “AGAGAAGAAAACAAAACACACACATATATCTTAATA [CACACA_site8699]”: the “gcPBM binding intensity (ln)” value was found to be 9.51 ± 0.34. Consider “CTTAAATCTACTATTTGTACATATTTTATTATTAAA [XGTACX_site6151]”, for which the “gcPBM binding intensity (ln)” value was 8.68 ± 0.46. To “TATTATAATAAAATATGTACACACATACACACATAT [XGTACX_site2360]” belongs 9.43 ± 0.36; to AGAGGGGAAAACATGATGCACTAGTATAACCAAGAA, 9.06 ± 0.49; to “TAGATATGTCTAAAAAGTACTTTCTATAACAATTCT [XGTACX_site6678]”, 8.43 ± 0.47. To “TTTCCTTATAAAAATACACACAAACTTTCATTAAAA [CACACA_site5953]” belongs 8.48 ± 0.42; to “TCATATTATTATATATGTACATACCAATATATTATA [XGTACX_site2988]”, 8.75 ± 0.38.

In the case of “AACACCAAACAAAGGTGTACATATAGGAAAAAATCT [XGTACX_site1006]”, the “gcPBM binding intensity (ln)” value is 9.07 ± 0.5. Consider “TACACGCAGAAACACACACACACACCCATATATATA [CACACA_site637]”, for which the “gcPBM binding intensity (ln)” value is 10.1 ± 0.28.

As for “TATCACATATTATGATGTACAAAGATTCTGACTAAT [XGTACX_site2770]”, the “gcPBM binding intensity (ln)” value turned out to be 8.63 ± 0.38. With “TGTTATATATATACAAACATACACATTTATAAACAA [TGCATGCA_negctrl_site235]” the figure was 8.75 ± 0.31.

As for “AAAAAAAGAAAAAAAACACACACAAATATAAATAAA [CACACA_site8309]”, the “gcPBM binding intensity (ln)” value worked out at 9.46 ± 0.39. With “GTTCAAATTCTTATACCTTTTTATTGAGCCATAATA [CACACA_negctrl_site210]” the figure was 8.59 ± 0.47. To “TATTAATTTCTTTTTTCTCATCACTTTCAAAATGAA [CACACA_negctrl_site1055]” belongs 8.21 ± 0.43. To “TTATGATCATTTATATGTACACATAATTTTTGTGCT [XGTACX_site5568]” belongs 9.03 ± 0.44; to “AGCATATATTAAACATGTACATAAATATATTATATA [XGTACX_site1451]”, 8.89 ± 0.47; to “TTATTAAATGAAAAATGTACATATAAATGATTATAT [XGTACX_site2788]”, 8.61 ± 0.34. In the case of “GAAATGTGTAGACACGCACACACAAAAAAATATATA [CACACA_site2912]”, the “gcPBM binding intensity (ln)” value came to 9.76 ± 0.45.

Regarding “ATGTATAAACATATATGTACTTAAATAAAATGTTAA [XGTACX_site4044]”, the “gcPBM binding intensity (ln)” value worked out at 8.85 ± 0.42. With “TAAAAAAACATATATTGTACGGAGATAATAATTTTT [XGTACX_site2946]” the figure was 8.62 ± 0.48; with “AAAAATAAAAAAATAATAAAATAAAAAATAAAAAAT [TGCATGCA_negctrl_site89]”, 8.79 ± 0.71. With “TATACTGTCAATTCTACACACCATAGGGGGAGCATA [CACACA_site1875]” the figure was 9.35 ± 0.18; with “ATTAAAAGAACAATGTAAAAAAAGCAAATTAAAGAT [TGCATGCA_negctrl_site360]”, 8.95 ± 0.57. For “CACCAATTCATATGCACACACATCTGCATATTATAT [CACACA_site1773]”, the “gcPBM binding intensity (ln)” value was found to be 9.51 ± 0.31. With AAAAAAAAAATACAGGTGCAATAAGAAAAAAATGGT the figure was 9.13 ± 0.47. In the case of “TATATTAACAAAATGGTGCAATAATTTCTATATTAT [GTGCAC_site9857]”, the “gcPBM binding intensity (ln)” value was determined as 8.62 ± 0.4. With “TATACATATTTAATATGTACATAATAATACTTATTC [XGTACX_site6939]” the figure was 8.68 ± 0.38; with “CCAAATTTATAAAGAACACACACATATATATATATA [CACACA_site7900]”, 9.93 ± 0.11; with “AAGCATGTAGAATAATGTACTTGTGATTTTAATATA [XGTACX_site8565]”, 8.75 ± 0.51. With “ATATTTTTTGTATGTTGTACATAAAATATACATTTT [XGTACX_site6815]” the figure was 8.71 ± 0.33; with “AGATACTTTTTTAAAAGTACAAAAACTTTCGATATA [XGTACX_site959]”, 8.4 ± 0.4. Regarding “TCTAAAATAGTCCAGAGTACAAGAAACCATAATATA [XGTACX_site5237]”, the “gcPBM binding intensity (ln)” value stood at 8.71 ± 0.47. To “CATACATACATACATACACACATACATATATATATA [CACACA_site8388]” belongs 9.56 ± 0.25; to “ATATAGGTAATATTTTGTACATATTTTTGGGGTAGT [XGTACX_site5634]”, 9.1 ± 0.34; to “AATTCTTTTTTCAACACACACACACCCGAAAATATA [CACACA_site3111]”, 9.66 ± 0.28.

As for “TTCTAATATATGCATACACACAAATGTGAATATACA [CACACA_site2142]”, the “gcPBM binding intensity (ln)” value is 8.94 ± 0.41. For the sequence “AAAAAAAAAAAAAACACACACACACCCAAATATATA [CACACA_site1169]”, the “gcPBM binding intensity (ln)” value is 10.2 ± 0.44.

As to “ATATATTTATTTATATGTACATAATATTTTTCTCAG [XGTACX_site800]”, the “gcPBM binding intensity (ln)” value was 8.78 ± 0.47. To “TTTTTTATTACTTTGTGTACTTACACAGAACCTTAT [XGTACX_site6038]” belongs 8.88 ± 0.61. With “AAAAATGCAATTTAATGTACACATAAGATGTTATTT [XGTACX_site6853]”, the “gcPBM binding intensity (ln)” value came out at 8.7 ± 0.43. With “ATAAAAATATAAACATGTACATAAAAATCTATATAT [XGTACX_site405]” the figure was 8.96 ± 0.44.

Regarding “TTGCTTATATTTCTAAAATGTAAAAGACACAAAGGT [XGTACX_negctrl_site225]”, the “gcPBM binding intensity (ln)” value came to 8.54 ± 0.45. With “AAAAAAGAAACAATCGCATGCAATGTTAATGTACAT [TGCATGCA_site395]”, the “gcPBM binding intensity (ln)” value turned out to be 9.36 ± 0.46. For “TACGCAAAATAAAATCAAAATATAAGGAAAAAAAAA [TGCATGCA_negctrl_site578]”, the “gcPBM binding intensity (ln)” value was determined as 8.46 ± 0.57. Consider “AGGTGTCATATATGCACACAAAAGTAACACGCACCT [CACACA_site472]”, for which the “gcPBM binding intensity (ln)” value was 9.4 ± 0.36. With “TGAACAACTATTACTGCACACATTCTTACACTATAT [CACACA_site4533]” the figure was 9.41 ± 0.45; with “TTTTTTAAACGTTTAAATAATTAAATATAAATAAAT [CACACA_negctrl_site1567]”, 8.16 ± 0.39; with “GATAATTTTTGCATATGTACTTAAAAATTAAAAATT [XGTACX_site7037]”, 8.44 ± 0.4. Regarding “AAAAAAAAAAAAGGTACTACACACTATTATCAATAG [XGTACX_site161]”, the “gcPBM binding intensity (ln)” value is 8.73 ± 0.48. With “GACCTACAAAAAGGCACACATATACTCATACATACA [CACACA_site5232]” the figure was 9.09 ± 0.48. Turning to “ACATTTATTTTGAATGGTACACTATTATTATGAAAT [XGTACX_site4384]”, the “gcPBM binding intensity (ln)” value was 8.59 ± 0.44. With GTGTAATGCTTATCGGTGCATATATATATATATATA the figure was 10.13 ± 0.021; with “TATCTCTACAAAATTTTATTCATTATTCATGTTATA [XGTACX_negctrl_site452]”, 8.69 ± 0.44; with “GTACAATAAGATGTAGCATGCCGTACCTTCACTACG [TGCATGCA_site235]”, 8.95 ± 0.54. To “TAATATTTATCAAGTCGTACATAAAATGTATAATAA [XGTACX_site1103]” belongs 8.7 ± 0.44; to “ACAAAGAAATATAATACACACAAGAATATATTGGAT [CACACA_site3901]”, 9.3 ± 0.48. For “CAAATAACAAAATAATGTACATTTATACTTTTTTTT [XGTACX_site943]”, the “gcPBM binding intensity (ln)” value was 8.62 ± 0.47. To “TATACATATTTGTATTGTACATAAACTAAATCTTCA [XGTACX_site610]” belongs 8.47 ± 0.4. With “ATACTGTATGAAAGCACACATACTTATTACTAACAT [CACACA_site4164]” the figure was 9 ± 0.34; with “AGGATTATATATTAATGTACCCGCGTTAATTTTTTT [XGTACX_site2878]”, 8.93 ± 0.45. On to “AAATAGAGAAATACAAGTACATACTAAACCTATCTA [XGTACX_site1334]”, for which the “gcPBM binding intensity (ln)” value came out at 8.91 ± 0.61. Consider “TCTAATAAAATAAATACATGCATACATACATACATA [TGCATGCA_site895]”, for which the “gcPBM binding intensity (ln)” value amounted to 8.81 ± 0.32. As for “AAAATTTTTTTTATTTGTACACAATTCGATACATAA [XGTACX_site4804]”, the “gcPBM binding intensity (ln)” value is 8.59 ± 0.44. As to “TAAATAATCGCATAATGTACATATAATTTTTTTTTT [XGTACX_site4880]”, the “gcPBM binding intensity (ln)” value came to 8.7 ± 0.49.
